According to the supplement of paper PMC10037445:
Whole data set: some 2,900 compounds, median “IRF Lucia reporter activity, fold change vs agonist alone” near 0.9, cut for the highest 2% near 2.8. The list shows a part of the results.

Columns and labels:
[1] = test system: RAW-Dual; test: IRF Lucia reporter activity, fold change vs agonist alone; higher = enhanced IRF activity; settings: agonist: MPLA (TLR4) […]
How it was run: (§1)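 Supernatant from RAW-Dual macrophages was read after 20 hours for IRF by QuantiLuc luminescence and for NF-κB by QuantiBlue absorbance at 620 nm. The cells (50,000 cells/well in DMEM, 384-well plates, 37 °C, 5% CO2) had received 50 nL of library stock by pin tool and, 1 h later, a PRR agonist. Reporter activity is expressed relative to agonist-alone wells as fold change, and wells were flagged cytotoxic if IncuCyte confluency was under 70% of agonist controls in both mask sets.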

[2] = test system: RAW-Dual; test: IRF Lucia reporter activity, fold change vs agonist alone; cytotoxicity flag (confluency mask): not cytotoxic; higher = enhanced IRF activity
How it was run: as §1

[3] = test system: RAW-Dual; test: IRF Lucia reporter activity, fold change vs agonist alone; cytotoxicity flag (confluency mask): cytotoxic (confluency <70% of control); higher = enhanced IRF activity
How it was run: as §1

[4] = agonist: 3'3'-cGAMP (STING) 10 ug/mL
[5] = library stock concentration (final ~1000-fold dilution): 10 mM, cytotoxicity flag (confluency mask): not cytotoxic
[6] = library stock concentration (final ~1000-fold dilution): 10 mM, cytotoxicity flag (confluency mask): cytotoxic (confluency <70% of control)

CN1CCN(C(=O)C2C3CCC(O3)C2C(=O)O)CC1 (centres undefined)
IRF Lucia reporter activity ([1]; library stock concentration (final ~1000-fold dilution): 10 mM water, cytotoxicity flag (confluency mask): not cytotoxic): 1.47

CN1CCN(C(=O)C2C3CCC(O3)C2C(=O)O)CC1 (centres undefined) (library stock concentration (final ~1000-fold dilution): 10 mM water)
IRF Lucia reporter activity [2, 4]: 1.33 | IRF Lucia reporter activity ([2]; agonist: LPS (TLR4) 0.1 ug/mL): 1.04

COc1ccc(S(=O)(=O)Nc2cc(-c3c(O)ccc4ccccc34)c(O)c3ccccc23)cc1 (library stock concentration (final ~1000-fold dilution): 10 mM)
IRF Lucia reporter activity [2, 4]: 0.202 | IRF Lucia reporter activity ([2]; agonist: LPS (TLR4) 0.1 ug/mL): 0.493

COc1ccc(CC2c3cc(OC)c(OC)cc3CC[N+]2(C)CCC(=O)OCCCCCOC(=O)CC[N+]2(C)CCc3cc(OC)c(OC)cc3C2Cc2ccc(OC)c(OC)c2)cc1OC.O=S(=O)([O-])c1ccccc1.O=S(=O)([O-])c1ccccc1 (centres undefined)
IRF Lucia reporter activity [1, 5]: 0.627

COc1ccc(CC2c3cc(OC)c(OC)cc3CC[N+]2(C)CCC(=O)OCCCCCOC(=O)CC[N+]2(C)CCc3cc(OC)c(OC)cc3C2Cc2ccc(OC)c(OC)c2)cc1OC.O=S(=O)([O-])c1ccccc1.O=S(=O)([O-])c1ccccc1 (centres undefined) (library stock concentration (final ~1000-fold dilution): 10 mM)
IRF Lucia reporter activity [2, 4]: 0.744 | IRF Lucia reporter activity ([2]; agonist: LPS (TLR4) 0.1 ug/mL): 0.902

O=C(O)C(O)Cc1ccc(O)c(O)c1 (centres undefined) (library stock concentration (final ~1000-fold dilution): 10 mM)
IRF Lucia reporter activity [2, 4]: 1.01 | IRF Lucia reporter activity ([2]; agonist: LPS (TLR4) 0.1 ug/mL): 0.964

O=C(O)C(O)Cc1ccc(O)c(O)c1 (centres undefined)
IRF Lucia reporter activity [1, 5]: 1.02

CCN(CC)CCOC(=O)C(c1ccccc1)C1CCCCC1.Cl (centres undefined)
IRF Lucia reporter activity [1, 6]: 1.39

CCN(CC)CCOC(=O)C(c1ccccc1)C1CCCCC1.Cl (centres undefined) (library stock concentration (final ~1000-fold dilution): 10 mM)
IRF Lucia reporter activity [3, 4]: 0.604 | IRF Lucia reporter activity ([3]; agonist: LPS (TLR4) 0.1 ug/mL): 1.07

Oc1ccc(OC2CCCCO2)cc1 (centres undefined)
IRF Lucia reporter activity [1, 5]: 1.11

Oc1ccc(OC2CCCCO2)cc1 (centres undefined) (library stock concentration (final ~1000-fold dilution): 10 mM)
IRF Lucia reporter activity [2, 4]: 0.916 | IRF Lucia reporter activity ([2]; agonist: LPS (TLR4) 0.1 ug/mL): 1.06

Nc1cccc2c1C(=O)N(C1CCC(=O)NC1=O)C2=O (centres undefined) (library stock concentration (final ~1000-fold dilution): 10 mM)
IRF Lucia reporter activity [2, 4]: 1.17 | IRF Lucia reporter activity ([2]; agonist: LPS (TLR4) 0.1 ug/mL): 0.734

Nc1cccc2c1C(=O)N(C1CCC(=O)NC1=O)C2=O (centres undefined)
IRF Lucia reporter activity [1, 5]: 0.864

NC(=O)c1nc(F)cnc1O (library stock concentration (final ~1000-fold dilution): 10 mM)
IRF Lucia reporter activity [2, 4]: 1.1 | IRF Lucia reporter activity ([2]; agonist: LPS (TLR4) 0.1 ug/mL): 1.21

Cc1[nH]c2ccccc2c1C1=C(NCCc2ccc(F)cc2)C(=O)N(C)C1=O (library stock concentration (final ~1000-fold dilution): 10 mM)
IRF Lucia reporter activity [2, 4]: 1.07 | IRF Lucia reporter activity ([2]; agonist: LPS (TLR4) 0.1 ug/mL): 1.24

Cc1[nH]c2ccccc2c1C1=C(NCCc2ccc(F)cc2)C(=O)N(C)C1=O
IRF Lucia reporter activity [1, 5]: 1.77

Nc1ccc(/C=C/C(=O)NCc2cc3cc(-c4ccc(C(=O)N5CCC(F)(F)CC5)cc4)cc(-c4ccc(F)cc4)c3o2)cn1 (library stock concentration (final ~1000-fold dilution): 10 mM)
IRF Lucia reporter activity [2, 4]: 0.239 | IRF Lucia reporter activity ([2]; agonist: LPS (TLR4) 0.1 ug/mL): 1.13

O=C(NO)c1cccc(C(=O)NCCc2ccccc2)c1 (library stock concentration (final ~1000-fold dilution): 10 mM)
IRF Lucia reporter activity [2, 4]: 0.268 | IRF Lucia reporter activity ([2]; agonist: LPS (TLR4) 0.1 ug/mL): 1.09

CC(=O)Nc1nc2c(Oc3cc(-c4ccc(C(F)(F)F)cc4)ncn3)cccc2s1 (library stock concentration (final ~1000-fold dilution): 10 mM)
IRF Lucia reporter activity [2, 4]: 1.16 | IRF Lucia reporter activity ([2]; agonist: LPS (TLR4) 0.1 ug/mL): 1.22

CC(=O)Nc1nc2c(Oc3cc(-c4ccc(C(F)(F)F)cc4)ncn3)cccc2s1
IRF Lucia reporter activity [1, 5]: 1.1

CC(C)n1nc(-c2ccc3oc(N)nc3c2)c2c(N)ncnc21
IRF Lucia reporter activity [1, 5]: 1.47

CC(C)n1nc(-c2ccc3oc(N)nc3c2)c2c(N)ncnc21 (library stock concentration (final ~1000-fold dilution): 10 mM)
IRF Lucia reporter activity [2, 4]: 0.408 | IRF Lucia reporter activity ([2]; agonist: LPS (TLR4) 0.1 ug/mL): 1.35

N#CSc1cc(SC#N)c(N)nc1N (library stock concentration (final ~1000-fold dilution): 10 mM)
IRF Lucia reporter activity [3, 4]: 0.022 | IRF Lucia reporter activity ([3]; agonist: LPS (TLR4) 0.1 ug/mL): 0.0681

N#CSc1cc(SC#N)c(N)nc1N
IRF Lucia reporter activity [1, 6]: 0.0209

O=c1c(OC2OC(CO)C(O)C(O)C2O)c(-c2ccc(O)c(O)c2)oc2cc(O)cc(O)c12 (centres undefined) (library stock concentration (final ~1000-fold dilution): 10 mM)
IRF Lucia reporter activity [2, 4]: 1.06 | IRF Lucia reporter activity ([2]; agonist: LPS (TLR4) 0.1 ug/mL): 0.986

O=c1c(OC2OC(CO)C(O)C(O)C2O)c(-c2ccc(O)c(O)c2)oc2cc(O)cc(O)c12 (centres undefined)
IRF Lucia reporter activity [1, 5]: 1.02

Clc1ccc(Cn2c(CN3CCCC3)nc3ccccc32)cc1 (library stock concentration (final ~1000-fold dilution): 10 mM)
IRF Lucia reporter activity [2, 4]: 1.02 | IRF Lucia reporter activity ([2]; agonist: LPS (TLR4) 0.1 ug/mL): 0.801

Clc1ccc(Cn2c(CN3CCCC3)nc3ccccc32)cc1
IRF Lucia reporter activity [1, 5]: 1.05
